PubChem BioAssay AID652106 (National Center for Advancing Translational Sciences (NCATS), 2013)
Hit rate of the full screen: of about 370,000 compounds, about 500 (0.14%) were called active. This list was built around the results that the source calls inconclusive (neither active nor inactive); the mix of calls is not that of the screen. Calls come from the whole dose curve; as a rule, active = well fitted activation curve with a large enough effect; inconclusive = small, poorly fitted or top-dose-only effect; inactive = no such curve, though single readings can be large or run the other way. Potencies of inconclusive entries are left out as doubtful fits.
Potency is the fitted concentration of half-maximal effect; tags give direction and shape of the fitted curve.

Assay: qHTS of alpha-syn Inhibitors; note: nearly all actives have a fitted effect of over 65% in size; for growth rescue (activation): % of control where 0% means no effect
Conditions: Yeast expressing alpha-synuclein, BacTiter-Glo, 24 h; Potency: growth rescue unless noted; growth rescue (activation): at 46.1 µM (top of the series) unless noted
In short: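 Readout is rescue of growth in alpha-synuclein-expressing yeast, so inhibitors of toxicity appear as activators. Growth after 24 hr at 30 deg C in galactose medium is quantified by luminescence.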
With `COc1ccc(C(=O)N/N=C/c2sc3ccccc3c2O)cc1` the Potency was inconclusive [activator, single point]. For `CC1C(=O)N(Cc2cn(CC3CCCCC3)nn2)CCS(=O)(=O)N1Cc1ccc(-c2ccc(Cl)cc2)cc1` (stereo not given), the Potency was inconclusive [activator, single point]. With `Cc1ccc2cc(F)c(F)c(F)c2n1` the “growth rescue (activation)” value was inactive: -1.21%. For `CCOc1ccccc1NC(=O)CSc1nnc(Cn2c(=O)sc3ccccc32)n1C`, the Potency was inconclusive [activator, single point]. With `COc1ccc(NC(=O)/C=C/C(=O)O)cc1Cl` the Potency was inconclusive [activator, single point]. For `COc1ccc(Cl)cc1NC(=O)CN(C)C(=O)CCCc1c[nH]c2ccccc12`, the Potency was inconclusive [activator, single point]. In the case of `COc1ccc(NC(=O)CSc2nc3ccccc3nc2N2CCCC2)cc1`, the Potency is reported as inconclusive [activator, single point]. For `Cc1ccc(-c2nc(CS(=O)CC(=O)NCCN3CCOCC3)c(C)o2)cc1` (stereo not given), the Potency was inconclusive [activator, single point]. With `COc1ccc(/C=C(/C(=O)c2ccc(Cl)cc2Cl)n2cncn2)cc1` the Potency was inconclusive [activator, single point]. In the case of `CCOc1ccc(Cl)cc1C1=CC(=O)C[C@H](c2ccc(OC)cc2)C1`, the “growth rescue (activation)” value is reported as inactive: -2.54%. In the case of `C#CC1(O)CCC2C3CCc4cc(O)cc(C)c4C3CCC21C` (stereo not given), the Potency is reported as inconclusive [activator, partial curve]. With `O=C(NNC(=S)Nc1cccc(C(F)(F)F)c1)c1cccc(Cl)c1` the “growth rescue (activation)” value was inactive: -7.26%. With `O=C(CSc1nnc(-c2ccccn2)o1)Nc1ccc(F)cc1` the “growth rescue (activation)” value was inactive: -5.09%. For `CCOc1ccc(C(=O)c2nc3c(n2O)CCCCC3)cc1`, the “growth rescue (activation)” value was inactive: -4.72%. For `O=c1c2ccccc2nc(-c2ccoc2)n1CCc1ccccc1`, the “growth rescue (activation)” value was inactive: 2.32%. With `O=C(Nc1ccc(N2CCCC2)cc1)c1ccccc1F` the “growth rescue (activation)” value was inactive: 17.5%. In the case of `COc1ccc(Cc2c(C(C)(C)C)nc3ccc(Cl)cn23)c(C)c1`, the Potency is reported as inconclusive [activator, single point]. For `COc1ccc(-c2cnc3c(c2)C(=O)N([C@H](C)CO)C[C@@H](C)[C@@H](CN(C)C(=O)NC2CCCC2)O3)cc1`, the Potency was inconclusive [activator, single point]. With `COc1ccc(C2/C=C\CN(C(=O)NC34CC5CC(CC(C5)C3)C4)CC(=O)N2Cc2ccc(F)cc2)cc1` (stereo not given) the Potency was inconclusive [activator, single point]. In the case of `COc1ccccc1CN1CCN(Cc2ccc3ccccc3c2)CC1`, the “growth rescue (activation)” value is reported as inactive: -0.157%. For `Cc1ccc(S(=O)(=O)NC(=O)Nc2ccc(C)cn2)cc1`, the “growth rescue (activation)” value was inactive: -5.4%. In the case of `O=C(O)c1[nH]c2ccccc2c1NS(=O)(=O)c1ccc(F)cc1`, the “growth rescue (activation)” value is reported as inactive: 1.06%. In the case of `COc1ccc(OC)c(C2C/C(=N/O)C(C)C(c3cc(OC)ccc3OC)N2)c1` (stereo not given), the “growth rescue (activation)” value is reported as inactive: -3.14%. With `OC[C@@H]1CN(Cc2ccccc2)C[C@H](n2cnc3c(N4CCN(c5ccccc5)CC4)ncnc32)O1` the “growth rescue (activation)” value was inactive: 26.8%. For `O=S(=O)(Nc1ccccc1F)c1ccc2nsnc2c1`, the Potency was inconclusive [activator, single point]. For `CN1CCN2c3ccccc3CC3(C(=O)OC(C)(C)OC3=O)C2C1` (stereo not given), the “growth rescue (activation)” value was inactive: -7.17%. For `O=C(CCc1nc(-c2ccccc2F)no1)Nc1ccc(Oc2ccccc2)cc1`, the “growth rescue (activation)” value was inactive: 1.52%. With `O=c1[nH]c(=S)[nH]c2c1C(c1ccc(F)cc1)OC(CCC(F)(F)F)C2` (stereo not given) the “growth rescue (activation)” value was inactive: -1%. With `CN(C)c1ccc(/C=C2\C=Nc3ccccc32)cc1` the Potency was inconclusive [activator, single point]. With `COC(=O)c1cc(-c2ccc(Br)cc2)c2c(=O)n(C)c(=O)n(C)c2n1` the Potency was inconclusive [activator, single point]. For `O=C1C(=O)C(c2cc(O)c(O)c(O)c2)Oc2cc(O)cc(O)c21` (stereo not given), the Potency was inconclusive [activator, single point]. In the case of `O=C(CCC(=O)N1CCOc2ccccc21)NC1CCCCCC1`, the Potency is reported as inconclusive [activator, single point]. With `N#Cc1nc(-c2ccc(OCc3ccc(Cl)cc3)cc2)oc1N1CCCC1` the “growth rescue (activation)” value was inactive: 5.91%. In the case of `Cc1nc(Nc2nc3c(c(=O)[nH]2)CCC3)nc2ccccc12`, the Potency is reported as active: 11.2 µM. With `COc1cccc(SCC(=O)N2CCN(c3ccccc3)CC2)c1` the Potency was inconclusive [activator, single point]. In the case of `CCOC(=O)CNc1cccc(C(F)(F)F)c1`, the “growth rescue (activation)” value is reported as inactive: 1.14%. With `O=C1OCCN1C(=O)[C@H]1[C@H](c2ccc(F)cc2)C(c2ccc(F)cc2)=NN1c1ccc(Br)cc1` the Potency was inconclusive [activator, partial curve]. In the case of `CC1CCN(C2(O)C(=O)Nc3ccc(Cl)cc32)CC1` (stereo not given), the Potency is reported as inconclusive [activator, partial curve]. In the case of `COc1cc(/C=C/C(=O)NCc2cccnc2)cc(OC)c1OC`, the Potency is reported as inconclusive [activator, single point]. With `Cc1cccc(NC(=O)CSc2cccc3cccnc23)c1C` the “growth rescue (activation)” value was inactive: -0.589%. With `COc1ccc(C(O)c2nc(-c3ccc(C)c(C)c3)cs2)cc1` (stereo not given) the Potency was active: 10 µM. In the case of `O=C(COC(=O)Cc1ccc(Cl)cc1Cl)Nc1ccc(OC(F)F)cc1`, the “growth rescue (activation)” value is reported as inactive: 12.7%. For `N#Cc1c(-c2ccc(Cl)cc2)ccn2nc(CCC(=O)O)nc12`, the “growth rescue (activation)” value was inactive: -1.22%. For `OC(c1cccc(Cl)c1)c1nc(-c2cccc3cccnc23)cs1` (stereo not given), the Potency was active: 17.8 µM. With `Cc1ccc(Oc2ccc(NC(=O)CSc3n[nH]c(N)n3)cc2)cc1` the Potency was inconclusive [activator, single point]. With `Cc1nc(-c2ccccn2)nc(SCC(=O)N2CCOCC2)c1Cl` the “growth rescue (activation)” value was inactive: -1.21%. For `COC(=O)CS(=O)(=O)c1nnc([C@H](Cc2ccccc2)NC(=O)OC(C)(C)C)o1`, the “growth rescue (activation)” value was inactive: -21.3%. In the case of `O=C1c2ccccc2-c2cc(Br)ccc2NC1O` (stereo not given), the Potency is reported as active: 22.4 µM. For `Cc1ccc(NC(=O)CCCOc2ccccc2)cc1S(=O)(=O)N1CCOCC1`, the Potency was inconclusive [activator, single point]. With `O=C(O)c1ccccc1C(=O)Nc1ccc(Oc2cccc3ccccc23)cc1` the Potency was inconclusive [activator, partial curve].
